Test results published in patent US20210340207A1 (Merck Sharp & Dohme, published 2021).

T1: Human IL-2Rβ, His tag (Table 10) (human, UniProt P14784 27-239, limits assumed)
T1 construct: not shown: polyhistidine tag
T1 sequence (looked up): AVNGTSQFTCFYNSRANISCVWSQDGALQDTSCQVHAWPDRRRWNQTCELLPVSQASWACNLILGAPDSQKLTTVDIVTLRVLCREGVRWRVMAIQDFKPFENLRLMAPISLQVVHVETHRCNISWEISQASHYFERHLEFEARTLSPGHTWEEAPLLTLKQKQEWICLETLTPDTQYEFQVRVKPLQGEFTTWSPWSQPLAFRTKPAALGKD

T2: Cynomolgus IL-2Rα, His tag (Table 10) (cynomolgus monkey, UniProt H6WS54 22-213)
T2 construct: not shown: polyhistidine tag (tag cell printed once at r13)
T2 sequence: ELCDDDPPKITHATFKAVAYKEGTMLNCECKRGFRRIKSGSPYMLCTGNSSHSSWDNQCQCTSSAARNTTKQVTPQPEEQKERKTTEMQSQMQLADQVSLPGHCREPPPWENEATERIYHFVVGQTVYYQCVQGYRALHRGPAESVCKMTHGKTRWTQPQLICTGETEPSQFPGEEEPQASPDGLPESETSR

T3: Mouse IL-2Rβ, His tag (Table 10) (mouse, UniProt P16297 27-240, limits assumed)
T3 construct: not shown: polyhistidine tag (tag cell printed once at r17)
T3 sequence (looked up): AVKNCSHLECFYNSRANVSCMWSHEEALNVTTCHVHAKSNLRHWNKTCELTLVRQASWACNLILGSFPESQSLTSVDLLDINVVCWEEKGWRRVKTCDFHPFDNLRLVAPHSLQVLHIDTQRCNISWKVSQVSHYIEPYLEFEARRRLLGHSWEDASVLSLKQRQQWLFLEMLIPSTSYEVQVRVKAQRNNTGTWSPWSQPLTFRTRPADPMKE

T4: Rat IL-2Rβ, His tag (Table 10) (rat, UniProt P26896 27-239, limits assumed)
T4 construct: not shown: polyhistidine tag (tag cell printed once at r17)
T4 sequence (looked up): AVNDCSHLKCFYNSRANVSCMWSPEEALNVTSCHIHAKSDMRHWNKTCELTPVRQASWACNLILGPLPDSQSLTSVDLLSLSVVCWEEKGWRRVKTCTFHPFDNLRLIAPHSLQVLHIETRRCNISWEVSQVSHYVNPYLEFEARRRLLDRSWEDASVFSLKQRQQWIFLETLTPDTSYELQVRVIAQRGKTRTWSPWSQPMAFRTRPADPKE

T5: Mouse IL-2Rα, His tag (Table 10) (mouse, UniProt P01590 22-236, limits assumed)
T5 construct: not shown: polyhistidine tag (tag cell printed once at r13)
T5 sequence (looked up): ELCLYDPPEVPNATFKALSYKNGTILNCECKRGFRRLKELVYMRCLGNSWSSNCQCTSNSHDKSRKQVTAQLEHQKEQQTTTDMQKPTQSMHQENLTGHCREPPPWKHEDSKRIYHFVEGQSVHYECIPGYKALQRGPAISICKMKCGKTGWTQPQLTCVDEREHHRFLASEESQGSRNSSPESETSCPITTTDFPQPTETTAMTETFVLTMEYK

T6: Human IL-2Rα, His tag (Table 10) (human, UniProt P01589 22-213, limits assumed)
T6 construct: not shown: polyhistidine tag
T6 sequence (looked up): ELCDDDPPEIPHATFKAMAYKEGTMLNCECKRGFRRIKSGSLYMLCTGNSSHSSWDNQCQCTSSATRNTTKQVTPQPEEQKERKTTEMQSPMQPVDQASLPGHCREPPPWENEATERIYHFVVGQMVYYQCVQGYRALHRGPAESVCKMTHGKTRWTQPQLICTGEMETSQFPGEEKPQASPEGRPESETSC

T7: Cynomolgus/Rhesus IL-2Rβ, His tag (Table 10) (cynomolgus monkey / rhesus monkey, UniProt Q38J85 27-240)
T7 sequence: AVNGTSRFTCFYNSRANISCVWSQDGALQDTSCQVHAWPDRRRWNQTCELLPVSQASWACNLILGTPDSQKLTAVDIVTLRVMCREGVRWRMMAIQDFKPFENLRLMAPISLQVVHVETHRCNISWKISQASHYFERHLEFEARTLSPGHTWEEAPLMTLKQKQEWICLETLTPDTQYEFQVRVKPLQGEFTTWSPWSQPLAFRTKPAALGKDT

T8: Biotin-IL-2Rβ-His (UniProt P14784 27-239, limits assumed, biotin-labeled (site not stated))
T8 construct: also called biotin-labeled IL-2Rβ; not shown: His tag
T8 sequence (looked up): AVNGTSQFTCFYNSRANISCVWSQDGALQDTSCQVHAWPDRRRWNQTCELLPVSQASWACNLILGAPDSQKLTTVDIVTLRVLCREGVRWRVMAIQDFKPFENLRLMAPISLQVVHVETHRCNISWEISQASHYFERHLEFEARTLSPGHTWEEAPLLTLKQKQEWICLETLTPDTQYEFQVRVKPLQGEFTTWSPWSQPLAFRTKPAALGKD

T9: Biotin-IL-2Rα-His (UniProt P01589 22-213, limits assumed, biotin-labeled (site not stated))
T9 construct: also called biotin-labeled IL-2Rα; not shown: His tag
T9 sequence (looked up): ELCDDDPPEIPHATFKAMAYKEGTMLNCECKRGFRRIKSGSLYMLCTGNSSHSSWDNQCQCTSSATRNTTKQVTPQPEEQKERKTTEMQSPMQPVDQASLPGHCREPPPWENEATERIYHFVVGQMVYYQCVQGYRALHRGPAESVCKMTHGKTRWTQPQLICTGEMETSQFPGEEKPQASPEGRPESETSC


Tests used:
[1] = target: T1, Human IL-2Rβ, His tag (Table 10); experiment: SPR (Biacore T200), receptor captured on anti-histidine surface
Experimental: (§1) A Surface Plasmon Resonance (SPR) assay on a Biacore T200 (GE Healthcare) instrument was used to determine the monovalent affinities of pegylated aldesleukin variants against polyhistidine-tagged or Fc-tagged IL-2 Receptors. Biacore T200 Evaluation Software was used to fit each titration series to a 1:1 binding model or steady state affinity. The association (kₒₙ, M⁻¹ s⁻¹) and dissociation (koff, s⁻¹) rate constants were determined for each set of titrations and used to calculate the dissociation constant, KD=koff/kₒₙ, of each sample against each receptor. koff/kₒₙ values are not reported herein.
(§2) To measure the affinity of CON1 and aldesleukin for IL-2R subunits, receptors were captured on either an anti-histidine or anti-hu Fc antibody surface. […] CON1 has a six-fold lower affinity for Human and Cynomolgus/Rhesus IL-2-Rβ than aldesleukin.

[2] = target: T2, Cynomolgus IL-2Rα, His tag (Table 10); experiment: as above
Experimental: as §1, §2

[3] = target: T3, Mouse IL-2Rβ, His tag (Table 10); experiment: as above
Experimental: as §1, §2

[4] = target: T4, Rat IL-2Rβ, His tag (Table 10); experiment: as above
Experimental: as §1, §2

[5] = target: T5, Mouse IL-2Rα, His tag (Table 10); experiment: as above
Experimental: as §1, §2

[6] = target: T6, Human IL-2Rα, His tag (Table 10); experiment: as above
Experimental: as §1, §2

[7] = target: T7, Cynomolgus/Rhesus IL-2Rβ, His tag …; experiment: as above
Experimental: as §1, §2

Biotin-IL-2Rβ-His = target: T8, Biotin-IL-2Rβ-His; experiment: SPR (Biacore T200)
Biotin-IL-2Rα-His = target: T9, Biotin-IL-2Rα-His; experiment: SPR (Biacore T200)

KD/KD (human) [1] [ratio] | Kd [1] [nM] | KD/KD (human) [2] [ratio] | Kd [2] [nM] | binding result [3] | binding result [4] | KD/KD (human) [5] [ratio] | Kd [5] [nM] | KD/KD (human) [6] [ratio] | Kd [6] [nM] | KD/KD (human) [7] [ratio] | Kd [7] [nM] | Kd (Biotin-IL-2Rβ-His) [nM] | fold reduction over wt (Biotin-IL-2Rβ-His) [fold] | Kd (Biotin-IL-2Rα-His) [nM] | fold reduction over wt (Biotin-IL-2Rα-His) [fold] | Binder
1 | 730 | 0.6 | 9.9 | no binding | no binding | 0.8 | 12 | 1 | 16 | 1.5 | 1100 | – | – | – | – | Aldesleukin (DesA1_IL-2_C124S) (ligand) not shown
– | – | – | – | – | – | – | – | – | – | – | – | 400 | 1 | 10 | 1 | Ald-6HIS (ligand, also called aldesleukin with carboxyl-terminus HIS6-tag linked via a Gly-Gly-Ser linker) not shown
